Test results from PubChem BioAssay AID242 (DTP/NCI, 2004).
Toxic doses and inconclusive results are not listed. Some entries of the source have several records that differ or are many. This list holds those alone. There may be further records. Values that stand side by side repeat one measurement across runs, samples, wells, individuals or studies.

Test system: BDF1 mice, Lymphoma 8 ip, survival T/C
Experiment: NCI In Vivo Anticancer Drug Screen. Data for tumor model Lymphoma 8 (intraperitoneal) in B6D2F1 (BDF1) mice
Details: endpoint: survival time, mean or median; dose: 50.0 mg/kg/injection; schedule: Q01DX008 (ip); vehicle: saline; higher = longer survival
Description: The antitumor activity of compounds was measured in mice bearing transplantable tumors. Survival or tumor size were measured and the results are expressed as the measurement made in the treated group (T) divided by the measurement made in the vehicle treated control group (C). The tumor model used in this assay is Lymphoma 8 (intraperitoneal) in B6D2F1 (BDF1) mice

SMILES: CN(N=O)C(=O)N[C@@H](C=O)[C@@H](O)[C@H](O)[C@H](O)CO
- T/C: 119 % of control and 151 % of control
